{"source": "the supplement of paper PMC8728848", "experiment_in_all_cases": "glycan array binding signal (z-score within array); higher = stronger binding", "settings_in_all_cases": "glycan notation: IUPAC condensed, linker removed", "key": {"Fuc(a1-2)Gal": {"target": "Fuc(a1-2)Gal", "how_it_was_run": "(§1)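 Glycan array binding is given as a within-array Z-score, which can be read as non-binding when negative. The arrays, 3228 of them, came from the Consortium for Functional Glycomics database and were retained only where the protein sequence was available. Z-scores were averaged across arrays of the same protein sequence at different concentrations or buffers and across linkers.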"}, "Fuc(a1-2)Gal(b1-3)GalNAc": {"target": "Fuc(a1-2)Gal(b1-3)GalNAc", "how_it_was_run": "as §1"}, "[1]": {"target": "Fuc(a1-2)Gal(b1-3)GalNAc(a1-3)[Fuc(a1-2)]Gal(b1-4)Glc", "how_it_was_run": "as §1"}, "[2]": {"target": "Fuc(a1-2)Gal(b1-3)GalNAc(a1-3)[Fuc(a1-2)]Gal(b1-4)GlcNAc", "how_it_was_run": "as §1"}, "[3]": {"target": "Fuc(a1-2)Gal(b1-3)GalNAc(b1-3)Gal", "how_it_was_run": "as §1"}, "[4]": {"target": "Fuc(a1-2)Gal(b1-3)GalNAc(b1-3)Gal(a1-4)Gal(b1-4)Glc", "how_it_was_run": "as §1"}, "[5]": {"target": "Fuc(a1-2)Gal(b1-3)GalNAc(b1-4)[Neu5Ac(a2-3)]Gal(b1-4)Glc", "how_it_was_run": "as §1"}, "Fuc(a1-2)Gal(b1-3)GlcNAc": {"target": "Fuc(a1-2)Gal(b1-3)GlcNAc", "how_it_was_run": "as §1"}, "[6]": {"target": "Fuc(a1-2)Gal(b1-3)GlcNAc(b1-2)Man(a1-3)[Fuc(a1-2)Gal(b1-3)GlcNAc(b1-2)Man(a1-6)]Man(b1-4)GlcNAc(b1-4)GlcNAc", "how_it_was_run": "as §1"}, "[7]": {"target": "Fuc(a1-2)Gal(b1-3)GlcNAc(b1-2)Man(a1-3)[Fuc(a1-2)Gal(b1-3)GlcNAc(b1-2)Man(a1-6)]Man(b1-4)GlcNAc(b1-4)[Fuc(a1-6)]GlcNAc", "how_it_was_run": "as §1"}, "[8]": {"target": "Fuc(a1-2)Gal(b1-3)GlcNAc(b1-3)Gal(b1-4)Glc", "how_it_was_run": "as §1"}, "[9]": {"target": "Fuc(a1-2)Gal(b1-3)GlcNAc(b1-3)GalNAc", "how_it_was_run": "as §1"}, "[10]": {"target": "Fuc(a1-2)Gal(b1-3)GlcNAc(b1-3)[Fuc(a1-2)Gal(b1-3)GlcNAc(b1-6)]GalNAc", "how_it_was_run": "as §1"}, "[11]": {"target": "Fuc(a1-2)Gal(b1-3)GlcNAc(b1-3)[Gal(b1-4)GlcNAc(b1-6)]Gal(b1-4)Glc", "how_it_was_run": "as §1"}, "[12]": {"target": "Fuc(a1-2)Gal(b1-3)GlcNAc(b1-3)[Neu5Ac(a2-6)Gal(b1-4)GlcNAc(b1-6)]Gal(b1-4)Glc", "how_it_was_run": "as §1"}, "[13]": {"target": "Fuc(a1-2)Gal(b1-3)GlcNAc6S", "how_it_was_run": "as §1"}, "[14]": {"target": "Fuc(a1-2)Gal(b1-3)[Fuc(a1-4)]GlcNAc", "how_it_was_run": "as §1"}, "[15]": {"target": "Fuc(a1-2)Gal(b1-3)[Fuc(a1-4)]GlcNAc(b1-2)Man(a1-3)[Fuc(a1-2)Gal(b1-3)[Fuc(a1-4)]GlcNAc(b1-2)Man(a1-3)]Man(b1-4)GlcNAc(b1-4)GlcNAc", "how_it_was_run": "as §1"}, "[16]": {"target": "Fuc(a1-2)Gal(b1-3)[Fuc(a1-4)]GlcNAc(b1-2)Man(a1-3)[Fuc(a1-2)Gal(b1-3)[Fuc(a1-4)]GlcNAc(b1-2)Man(a1-6)]Man(b1-4)GlcNAc(b1-4)[Fuc(a1-6)]GlcNAc(b1-4)[Fuc(a1-6)]GlcNAc", "how_it_was_run": "as §1"}, "[17]": {"target": "Fuc(a1-2)Gal(b1-3)[Fuc(a1-4)]GlcNAc(b1-3)[Fuc(a1-3)[Gal(b1-4)]GlcNAc(b1-6)]Gal(b1-4)Glc", "how_it_was_run": "as §1"}, "[18]": {"target": "Fuc(a1-2)Gal(b1-3)[Fuc(a1-4)]GlcNAc(b1-3)[Gal(b1-4)GlcNAc(b1-6)]Gal(b1-4)Glc", "how_it_was_run": "as §1"}, "Fuc(a1-2)Gal(b1-4)Glc": {"target": "Fuc(a1-2)Gal(b1-4)Glc", "how_it_was_run": "as §1"}, "Fuc(a1-2)Gal(b1-4)Glc6S": {"target": "Fuc(a1-2)Gal(b1-4)Glc6S", "how_it_was_run": "as §1"}, "Fuc(a1-2)Gal(b1-4)GlcNAc": {"target": "Fuc(a1-2)Gal(b1-4)GlcNAc", "how_it_was_run": "as §1"}, "[19]": {"target": "Fuc(a1-2)Gal(b1-4)GlcNAc(b1-2)Man", "how_it_was_run": "as §1"}, "[20]": {"target": "Fuc(a1-2)Gal(b1-4)GlcNAc(b1-2)Man(a1-3)[Fuc(a1-2)Gal(b1-4)GlcNAc(b1-2)Man(a1-6)]Man(b1-4)GlcNAc(b1-4)GlcNAc", "how_it_was_run": "as §1"}, "[21]": {"target": "Fuc(a1-2)Gal(b1-4)GlcNAc(b1-2)Man(a1-3)[Fuc(a1-2)Gal(b1-4)GlcNAc(b1-2)Man(a1-6)]Man(b1-4)GlcNAc(b1-4)[Fuc(a1-6)]GlcNAc", "how_it_was_run": "as §1"}, "[22]": {"target": "Fuc(a1-2)Gal(b1-4)GlcNAc(b1-2)[Fuc(a1-2)Gal(b1-4)GlcNAc(b1-4)]Man(a1-3)[Fuc(a1-2)Gal(b1-4)GlcNAc(b1-2)Man(a1-6)]Man(b1-4)GlcNAc(b1-4)GlcNAc", "how_it_was_run": "as §1"}, "[23]": {"target": "Fuc(a1-2)Gal(b1-4)GlcNAc(b1-3)Gal(b1-4)GlcNAc", "how_it_was_run": "as §1"}, "[24]": {"target": "Fuc(a1-2)Gal(b1-4)GlcNAc(b1-3)Gal(b1-4)GlcNAc(b1-2)Man(a1-3)[Fuc(a1-2)Gal(b1-4)GlcNAc(b1-3)Gal(b1-4)GlcNAc(b1-2)Man(a1-6)]Man(b1-4)GlcNAc(b1-4)GlcNAc", "how_it_was_run": "as §1"}}, "note": "This is one part of the list.", "data": [{"binder": "Clone730PsrP (Streptococcus pneumoniae) (protein) MDHHHHHHHHHHASENLYFQGAMVVGSQTAAATEATAKKVEEDRKKPASDYVASVTNVNLQSYAKRRKRSVDSIEQLLASIKNAAVFSGNTIVNGAPAINASLNIAKSETKVYTGEGVDSVYRVPIYYKLKVTNDGSKLTFTYTVTYVNPKTNDLGNISSMRPGYSIYNSGTSTQTMLTLGSDLGKPSGVKNYITDKNGRQVLSYNTSTMTTQGSGYTWGNGAQMNGFFAKKGYGLTSSWTVPITGTDTSFTFTPYAARTDRIGINYFNGGGKVVESSTT", "values": [{"measurement": "glycan array binding signal (z-score)", "setting": "Fuc(a1-2)Gal", "result": 0.412}, {"measurement": "glycan array binding signal (z-score)", "setting": "Fuc(a1-2)Gal(b1-3)GalNAc", "result": -0.457}, {"measurement": "glycan array binding signal (z-score)", "setting": "[1]", "result": -0.346}, {"measurement": "glycan array binding signal (z-score)", "setting": "[2]", "result": -0.078}, {"measurement": "glycan array binding signal (z-score)", "setting": "[3]", "result": 0.821}, {"measurement": "glycan array binding signal (z-score)", "setting": "[4]", "result": 0.225}, {"measurement": "glycan array binding signal (z-score)", "setting": "[5]", "result": -0.481}, {"measurement": "glycan array binding signal (z-score)", "setting": "Fuc(a1-2)Gal(b1-3)GlcNAc", "result": -0.129}, {"measurement": "glycan array binding signal (z-score)", "setting": "[6]", "result": 1.26}, {"measurement": "glycan array binding signal (z-score)", "setting": "[7]", "result": 1.56}, {"measurement": "glycan array binding signal (z-score)", "setting": "[8]", "result": -0.537}, {"measurement": "glycan array binding signal (z-score)", "setting": "[9]", "result": -0.492}, {"measurement": "glycan array binding signal (z-score)", "setting": "[10]", "result": 1.96}, {"measurement": "glycan array binding signal (z-score)", "setting": "[11]", "result": -0.516}, {"measurement": "glycan array binding signal (z-score)", "setting": "[12]", "result": -0.417}, {"measurement": "glycan array binding signal (z-score)", "setting": "[13]", "result": 0.256}, {"measurement": "glycan array binding signal (z-score)", "setting": "[14]", "result": -0.525}, {"measurement": "glycan array binding signal (z-score)", "setting": "[15]", "result": 1.5}, {"measurement": "glycan array binding signal (z-score)", "setting": "[16]", "result": -0.364}, {"measurement": "glycan array binding signal (z-score)", "setting": "[17]", "result": -0.531}, {"measurement": "glycan array binding signal (z-score)", "setting": "[18]", "result": -0.542}, {"measurement": "glycan array binding signal (z-score)", "setting": "Fuc(a1-2)Gal(b1-4)Glc", "result": -0.019}, {"measurement": "glycan array binding signal (z-score)", "setting": "Fuc(a1-2)Gal(b1-4)Glc6S", "result": 0.611}, {"measurement": "glycan array binding signal (z-score)", "setting": "Fuc(a1-2)Gal(b1-4)GlcNAc", "result": -0.115}, {"measurement": "glycan array binding signal (z-score)", "setting": "[19]", "result": 0.361}, {"measurement": "glycan array binding signal (z-score)", "setting": "[20]", "result": -0.472}, {"measurement": "glycan array binding signal (z-score)", "setting": "[21]", "result": -0.124}, {"measurement": "glycan array binding signal (z-score)", "setting": "[22]", "result": -0.122}, {"measurement": "glycan array binding signal (z-score)", "setting": "[23]", "result": -0.334}, {"measurement": "glycan array binding signal (z-score)", "setting": "[24]", "result": -0.077}]}]}
